The other results are listed elsewhere or left out.

Drawing on the antibiotic and cytotoxicity screens of Wong et al. (2023), this text covers cytotoxicity call and growth inhibition call for 28 compounds.

One assay relates to HSkMC. Briefly: cytotoxicity call (relative viability < 0.9). Conditions: 10 µM.
For the next assay, the system named is HepG2. Briefly: cytotoxicity call (relative viability < 0.9). The conditions noted are these: 10 µM.
In the next assay the test system is S. aureus RN4220. Briefly: growth inhibition call (relative growth <= 0.2). The conditions noted are these: 50 µM.

Take `C[C@@H]1CN([C@@H](C)CO)C(=O)c2cc(NS(=O)(=O)c3cccs3)ccc2O[C@H]1CN(C)Cc1ccncc1`: the cytotoxicity call in the assay on HSkMC and in the assay on HepG2 was “inactive” each time. Also, the growth inhibition call in the assay on S. aureus RN4220 was “inactive”.

Regarding `CS(=O)(=O)N1CC(=O)Nc2ccccc21`, the cytotoxicity call with HSkMC and in the assay on HepG2 was “inactive” each time. For the same compound, in the assay on S. aureus RN4220, the growth inhibition call was “inactive”.

In the case of `C[C@@H]1CN([C@@H](C)CO)S(=O)(=O)c2ccc(Br)cc2O[C@@H]1CN(C)CC1CCOCC1`, the cytotoxicity call in the assay with HSkMC and in the assay on HepG2 was “inactive” throughout. In addition, the growth inhibition call in the assay with S. aureus RN4220 is “inactive”.

For `CC(=O)N(C)C[C@@H]1Oc2cc(C#CCN(C)C)ccc2S(=O)(=O)N([C@H](C)CO)C[C@@H]1C`, the cytotoxicity call with HSkMC and in the assay with HepG2 was “inactive” in each case. The growth inhibition call with S. aureus RN4220 was “inactive”.

In the case of `C[C@H](CO)N1C[C@H](C)[C@H](CN(C)S(C)(=O)=O)Oc2ccc(NS(C)(=O)=O)cc2CC1=O`, the cytotoxicity call in the assay on HSkMC and in the assay on HepG2 was “inactive” each time. The growth inhibition call in the assay on S. aureus RN4220 is “inactive”.

Regarding `COc1cccc(C(=O)Nc2ccc3c(c2)C(=O)N(C)[C@H]2CC[C@H](CC(=O)NCC(F)(F)F)O[C@H]2CO3)c1`, the cytotoxicity call in the assay with HSkMC and in the assay with HepG2 was “inactive” in each case. Further, in the assay with S. aureus RN4220, the growth inhibition call was “inactive”.

Turning to `COc1c2ccoc2cc2oc(=O)ccc12`, the cytotoxicity call in the assay with HSkMC and in the assay on HepG2 was “inactive” each time. For the same compound, the growth inhibition call in the assay with S. aureus RN4220 is “inactive”.

Regarding `C[C@H](CO)N1C[C@H](C)[C@@H](CN(C)S(=O)(=O)c2cn(C)cn2)Oc2ccc(NS(=O)(=O)c3cccs3)cc2CC1=O`, the cytotoxicity call with HSkMC and in the assay with HepG2 was “inactive” each time. Besides, the growth inhibition call in the assay on S. aureus RN4220 was “inactive”.

For the compound `CC(=O)N1[C@H](CO)[C@@H](c2ccccc2)[C@@H]1CNC(=O)CN1CCOCC1`, the cytotoxicity call in the assay with HSkMC and with HepG2 was “inactive” each time. The growth inhibition call in the assay on S. aureus RN4220 was “inactive”.

As to `C[C@@H]1CN([C@H](C)CO)C(=O)c2cc(C#CCN(C)C)cnc2O[C@H]1CN(C)S(=O)(=O)c1ccccc1`, the cytotoxicity call in the assay with HSkMC and in the assay with HepG2 was “inactive” each time. In addition, in the assay on S. aureus RN4220, the growth inhibition call was “inactive”.

`C[C@@H]1CN([C@H](C)CO)C(=O)c2cc(NC(=O)CCC(F)(F)F)ccc2O[C@@H](C)CCCCO[C@@H]1CN(C)S(=O)(=O)c1ccccc1`: the cytotoxicity call in the assay on HSkMC and in the assay with HepG2 was “inactive” each time. In the assay with S. aureus RN4220, the growth inhibition call is “inactive”.

On to `CCc1c(C)[nH]c(N2CCOCC2)nc1=O`, for which the cytotoxicity call in the assay with HSkMC and in the assay with HepG2 was “inactive” in each case. Moreover, the growth inhibition call in the assay with S. aureus RN4220 is “inactive”.

As to `COc1ccc(S(=O)(=O)N(C)C[C@H]2Oc3ccc(NC(=O)Nc4cccc5ccccc45)cc3C(=O)N([C@@H](C)CO)C[C@@H]2C)cc1`, the cytotoxicity call in the assay on HSkMC and with HepG2 was “inactive” each time. Also, the growth inhibition call in the assay with S. aureus RN4220 is “inactive”.

For the compound `C[C@@H]1CCCCO[C@@H](CN(C)C(=O)Nc2cccc3ccccc23)[C@H](C)CN([C@@H](C)CO)C(=O)c2cc(NC(=O)NC3CCCCC3)ccc2O1`, the cytotoxicity call in the assay with HSkMC and with HepG2 was “inactive” in each case. Further, in the assay with S. aureus RN4220, the growth inhibition call was “inactive”.

As for `C[C@@H]1CN([C@@H](C)CO)C(=O)Cc2cc(NC(=O)Nc3cccc4ccccc34)ccc2O[C@H]1CN(C)C(=O)Nc1cccc2ccccc12`, the cytotoxicity call with HSkMC and with HepG2 was “inactive” throughout. The growth inhibition call with S. aureus RN4220 was “inactive”.

On to `CN1CCC(N(C)C(=O)COc2ccc(S(=O)(=O)N3CCOCC3)cc2)CC1`, for which the cytotoxicity call in the assay on HSkMC and in the assay on HepG2 was “inactive” each time. Besides, the growth inhibition call with S. aureus RN4220 is “inactive”.

As to `COc1ccc(NC(=O)Nc2ccc3c(c2)C(=O)N([C@H](C)CO)C[C@H](C)[C@H](CN(C)C(=O)Cc2ccccc2)OCCCC[C@H](C)O3)cc1`, the cytotoxicity call with HSkMC and in the assay on HepG2 was “inactive” throughout. For the same compound, the growth inhibition call with S. aureus RN4220 is “inactive”.

`C[C@@H]1CCCCO[C@H](CN(C)C(=O)c2ccccc2)[C@@H](C)CN([C@H](C)CO)C(=O)c2cc(NS(=O)(=O)c3ccccc3)ccc2O1`: the cytotoxicity call in the assay with HSkMC and in the assay with HepG2 was “inactive” throughout. Moreover, the growth inhibition call in the assay on S. aureus RN4220 was “inactive”.

As for `C[C@@H]1CN([C@@H](C)CO)C(=O)c2cc(NS(=O)(=O)c3ccc(F)cc3)ccc2O[C@@H]1CN(C)CC1CC1`, the cytotoxicity call with HSkMC and with HepG2 was “inactive” throughout. In the assay on S. aureus RN4220, the growth inhibition call was “inactive”.

For the compound `Cc1nnn2c1COC[C@H](CNS(C)(=O)=O)C2`, the cytotoxicity call in the assay with HSkMC and in the assay on HepG2 was “inactive” in each case. The growth inhibition call in the assay on S. aureus RN4220 is “inactive”.

On to `Cc1noc(C)c1S(=O)(=O)Nc1ccc2c(c1)C(=O)N([C@H](C)CO)C[C@@H](C)[C@@H](CN(C)S(=O)(=O)c1ccc(Cl)cc1)O2`, for which the cytotoxicity call in the assay on HSkMC and in the assay with HepG2 was “inactive” each time. For the same compound, in the assay with S. aureus RN4220, the growth inhibition call is “inactive”.

As to `CC(C)NC(=O)N(C)C[C@@H]1Oc2ccc(NS(=O)(=O)c3ccc(Cl)cc3)cc2CC(=O)N([C@@H](C)CO)C[C@@H]1C`, the cytotoxicity call in the assay with HSkMC and in the assay with HepG2 was “inactive” throughout. For the same compound, the growth inhibition call in the assay with S. aureus RN4220 was “inactive”.

For `C[C@@H]1CN([C@H](C)CO)C(=O)c2cc(C#CC3(O)CCCC3)cnc2O[C@@H]1CN(C)S(=O)(=O)c1ccccc1`, the cytotoxicity call in the assay on HSkMC (human skeletal muscle cells) and in the assay with HepG2 was “inactive” each time. Moreover, the growth inhibition call in the assay on S. aureus RN4220 is “inactive”.

For `CS(=O)(=O)N1CCN(Cc2cc3nc(-c4cccc5n[nH]cc45)nc(N4CCOCC4)c3s2)CC1`, the cytotoxicity call with HSkMC and in the assay on HepG2 was “active” in each case. Also, the growth inhibition call with S. aureus RN4220 is “inactive”.

Regarding `C[C@@H]1CN([C@H](C)CO)C(=O)c2cccc(NC(=O)Nc3ccc4c(c3)OCO4)c2O[C@H]1CN(C)S(=O)(=O)c1cn(C)cn1`, the cytotoxicity call in the assay with HSkMC and in the assay with HepG2 was “inactive” each time. Besides, the growth inhibition call with S. aureus RN4220 is “inactive”.

For the compound `C[C@@H]1CN([C@@H](C)CO)C(=O)c2cc(Br)cnc2O[C@H]1CN(C)C(=O)c1ccc2c(c1)OCO2`, the cytotoxicity call in the assay with HSkMC and with HepG2 was “inactive” throughout. Besides, the growth inhibition call with S. aureus RN4220 is “inactive”.

For the compound `C[C@@H]1CN([C@H](C)CO)C(=O)c2cccc(NC(=O)Nc3ccc(C(F)(F)F)cc3)c2O[C@@H]1CN(C)C(=O)Nc1ccc(F)cc1`, the cytotoxicity call with HSkMC and with HepG2 was “inactive” in each case. Further, the growth inhibition call in the assay with S. aureus RN4220 is “active”.

For `COCC(=O)Nc1ccc2c(c1)[C@H]1C[C@@H](CC(=O)N3CCOCC3)O[C@@H](CO)[C@H]1O2`, the cytotoxicity call with HSkMC and in the assay with HepG2 was “inactive” throughout. Also, in the assay with S. aureus RN4220, the growth inhibition call is “inactive”.
